Molecules are shown by their SMILES. The list shows a part of the results.

This experiment deals with T1, C. trachomatis L2/434/Bu expressing GFP (CTL2-GFP).
T1 construct: L2/434/Bu GFP intracellular growth in HeLa cells
Also on record: species or system HeLa; C. trachomatis total inclusion area by high-content imaging, normalised to DMSO. The settings on record: total inclusion area; 28.5 h, 10 µM; inhibitor. An outline of the steps: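 Host cell viability was gauged from Hoechst-stained nuclei counts, while chlamydial growth was taken from total inclusion area and inclusion number per well. Cells were fixed and imaged by high-content microscopy once bulk GFP and resorufin fluorescence had been measured.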
Regarding `CC(C)(C)c1cc(C(=O)Nc2ccncc2)n(Cc2ccc(Cl)cc2Cl)n1` [CBK107284], the “% of control remaining” value stood at 34.7793.
Under `O=C(NCCN1CCOCC1)c1cc(-c2ccc(Cl)cc2)nc2ccccc12` [CBK262650] stands 100.071.
For `COC(=O)c1c(NC(=S)Nc2cn(C)nc2C(N)=O)sc2c1CCCCC2` [CBK266849] the value was 117.973; for `CN1CCN(CC(=O)Nc2ccc(Cl)cc2C(=O)c2ccccc2)CC1` [CBK266246], 92.7851.
Take `CS(=O)(=O)NC1CCCN(c2ncnc3ccccc23)C1` (stereo not shown) [CBK305619]: the “% of control remaining” value came out at 46.564.
Under `NS(=O)(=O)c1ccc(CNC(=O)c2cc(-c3cccc(Cl)c3)nc3ccccc23)cc1` [CBK267774] stands 100.106; under `CN(Cc1ccccc1)Cc1nc2c([nH]1)c(=O)[nH]c(=O)n2C` [CBK269442], 80.2089; under `Cc1oc(C(C)(C)C)cc1C(=O)Nc1ccc(C(F)(F)F)cc1` [CBK057251], 67.532.
In the case of `CNC(=S)N(Cc1ccc(S(N)(=O)=O)cc1)C1CC(=O)N(c2ccc(OC)cc2)C1=O` (stereo not shown) [CBK262940], the “% of control remaining” value was determined as 61.4811.
Under `O=C(O)c1cccc(S(=O)(=O)Nc2nc3ccccc3s2)c1` [CBK161138] stands 90.9332.
For `CC(=O)N1CCCN(Cc2c(C(C)C)[nH]c3ncccc23)CC1` [CBK285333] the value was 85.559; for `CC(C)(CNC(=O)Cn1cc(C(=O)Nc2ccc(F)cc2)ccc1=O)c1cccc(F)c1` [CBK286079], 128.738.
For `CN1CCN(C(=O)c2ccc(-c3ccccc3)nc2N(C)C)CC1` [CBK106115] the value was 96.7655; for `CC(C)(C)c1ccc(S(=O)(=O)N2CCCC[C@H]2CCOC(=O)/C=C\C(=O)O)cc1` [CBK200069], 94.6775.
Consider `O=[N+]([O-])c1ccc(-c2ccc(/C=C/c3cc(O)c4ccccc4n3)o2)cc1` [CBK267792], for which the “% of control remaining” value was 99.1453.
For `O=C(O)C(CCO)Sc1nnc(Nc2ccc(Oc3ccccc3)cc2)s1` (stereo not shown) [CBK296631] the value was 111.551; for `Cc1ccc(CN(CCCn2ccnc2)Cc2cccnc2)o1` [CBK283100], 103.479.
Under `Cc1cccc(Nc2ccc(C3CCCCN3Cc3ccc4nccnc4c3)cn2)n1` (stereo not shown) [CBK285536] stands 68.7736; under `CCc1nn(CC(=O)NC2CCCC2)c(=O)c2cc3ccsc3n12` [CBK284134], 83.5166; under `CC(C)N(C)C1CCN(S(=O)(=O)c2cccc([N+](=O)[O-])c2)CC1` [CBK294462], 81.3695.
For `CSCCC(NS(=O)(=O)c1ccc(I)cc1)C(=O)O` (stereo not shown) [CBK268768] the value was 111.4.
As to `CN1CCN(c2ccc(NC(=O)c3cccc(Br)c3)cc2)CC1` [CBK266140], the “% of control remaining” value amounted to 118.479.
Under `COc1ccccc1-c1nc(C2CCCN2C(=O)N[C@@H](C)c2ccccc2)n2ccccc12` (stereo partly shown) [CBK046625] stands 76.8148; under `CSc1nc2ccc(NS(=O)(=O)c3ccc(Cl)c(C(=O)O)c3)cc2s1` [CBK297541], 88.0553.
In the case of `CCn1c(SCC(=O)N2c3ccccc3Sc3ccccc32)nnc1C(C)Oc1ccccc1` (stereo not shown) [CBK266290], the “% of control remaining” value came to 149.448.
For `COC(=O)c1cccn2cc(CN3CCSC(C)C3)nc12` (stereo not shown) [CBK304958], the “% of control remaining” value is given as 104.532.
`Cc1ccc2[nH]c3c(c2c1)CCNCC3` [CBK004811]: the “% of control remaining” value is listed as 100.971.
For `S=C(NCc1cccs1)NC1CC1` [CBK008520] the value was 71.1305.
Under `COCCN(CCOC)C(=O)Nc1ccc(F)c(NC(C)=O)c1` [CBK307705] stands 116.016; under `COCCn1cc(C(=O)N2CCN3CCCCC3C2)c2ccccc21` (stereo not shown) [CBK305287], 44.4553.
For `COc1ccccc1-c1nn2c(Cn3cnc4ccccc43)nnc2s1` [CBK268218] the value was 108.359; for `C[C@@H](Cn1c(C(F)(F)F)cc2cccnc21)NC(=O)C1CCC1` [CBK283230], 93.1797; for `Cc1occc1-c1nnc(SCC(=O)Nc2cccc3nsnc23)o1` [CBK268979], 107.044.
As for `COc1ccc(-c2nc(-c3ccoc3)cnc2N)cc1OC` [CBK063964], the “% of control remaining” value turned out to be 128.714.
Under `Cc1ccc(-c2ncc(OCc3cccs3)nc2N)cc1C` [CBK145146] stands 86.0072; under `CCc1cc(Br)ccc1S(=O)(=O)NC1CCOC1=O` (stereo not shown) [CBK044385], 77.3628.
Under `CN1CCCN(CC(CC(=O)NCc2ccccc2)C(=O)O)CC1` (stereo not shown) [CBK286791] stands 105.691.
Under `Cn1nnnc1Sc1cc(=O)n(C)c(=O)n1C` [CBK011072] stands 99.289; under `Cc1nn(CC(=O)NCc2ccc(C(=O)O)cc2)c(C)c1[N+](=O)[O-]` [CBK268967], 95.1883; under `CC(C)NC(=O)Nc1ccc(C(=O)N(CCC#N)Cc2ccco2)cc1` [CBK305999], 63.1301.
On to `COc1ccc(Cl)cc1Nc1ncnc(N)n1` [CBK288195], for which the “% of control remaining” value is 119.055.
For `Cn1cc(CC(=O)Nc2nc3c(cc2C#N)CCCC3)cn1` [CBK306436] the value was 80.2712.
Under `CC(=O)N1CCC(C(=O)NC(=O)NCCc2ccccc2)CC1` [CBK034851] stands 105.919; under `CCNc1nccnc1-c1cccc(O)c1` [CBK088593], 132.334.
For `CCOC(=O)N1CCN(c2cc3[nH]c(=S)[nH]c3cc2F)CC1` [CBK288444] the value was 87.5228.
In the case of `Cc1ccc(SCCNC(=O)COc2ccc(Cl)cc2Cl)cc1` [CBK263976], the “% of control remaining” value came out at 113.278.
For `Cc1cc(C(=O)CSc2ccc(Cl)nn2)c(C)n1C1CC1` [CBK305512] the value was 60.1276; for `O=c1c2ccccc2n2c(=O)[nH]nc2n1-c1ccccc1` [CBK288352], 63.5174.
Under `O=C(O)/C=C/c1cccc(NS(=O)(=O)c2ccc(C(=O)O)cc2)c1` [CBK262262] stands 102.271; under `c1ccc(CN2CCN(Cc3c[nH]c(-c4ccccc4)n3)CC2)cc1` [CBK074775], 86.8398; under `COc1cccc(NC(=O)Cn2cc(OC)c(=O)cc2CN2CCOCC2)c1` [CBK294430], 96.589.
Under `CSc1ccc(-n2ncc(-c3ccc(F)cc3F)n2)cc1` [CBK112728] stands 98.8141.

The values are drawn from article PMC12040169 (PLOS Biology, 2025).
